Counter-ions that a name gives are not always drawn. This is one part of the list. Most values come without repeats; read them as rough.
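Also: viability estimated indirectly by image-based GFP quantification with live-cell imaging of the constitutively GFP-expressing human colorectal cancer line, no immune cells added.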

This test concerns HCT116-GFP. In words: HCT116-GFP viability (GFP intensity) relative to untreated control, monoculture; higher = less cancer cell killing. The following applies: culture: HCT116-GFP monoculture; 10 µM; 72 h.
On to `CCC[C@@H]1C[C@@H](C(=O)N[C@@H]([C@H]2O[C@H](SC)[C@H](O)[C@@H](O)[C@H]2O)[C@H](C)Cl)N(C)C1` [Clindamycin hydrochloride], for which the HCT116-GFP viability came to 84.9%.

In the case of `Cc1ccc2c(c1)c1c3n2CCNC3CCC1` (configuration not stated) [Pirlindole mesylate], the HCT116-GFP viability stood at 101%.

Consider `C=C1/C(=C\C=C2/CCC[C@]3(C)[C@@H]([C@H](C)CCCC(C)C)CC[C@@H]23)C[C@@H](O)C[C@@H]1O` [Alfacalcidol], for which the HCT116-GFP viability amounted to 48.1%. The same measure for `CC(C)[N+](C)(CCOC(=O)C1c2ccccc2Oc2ccccc21)C(C)C` [Propantheline bromide]: 103%; for `CN(C)CCC=C1c2ccccc2COc2ccccc21` [Doxepin hydrochloride]: 95.9%. As to `Nc1ccccc1S(N)(=O)=O` [2-Aminobenzenesulfonamide], the HCT116-GFP viability is 104%.

Regarding `COc1ccccc1Oc1c(NS(=O)(=O)c2ccc(C(C)(C)C)cc2)nc(-c2ncccn2)nc1OCCO` [Bosentan], the HCT116-GFP viability was 86.4%.

Consider `N=C(N)NC(=O)Cc1c(Cl)cccc1Cl` [Guanfacine hydrochloride], for which the HCT116-GFP viability came to 79.5%. On to `CC1CNc2c(cccc2S(=O)(=O)N[C@@H](CCCNC(=N)N)C(=O)N2CC[C@@H](C)C[C@@H]2C(=O)O)C1` (some centres not stated) [Argatroban], for which the HCT116-GFP viability amounted to 94.4%.

With `CN(C)CCN(Cc1ccccc1)c1ccccn1` [Tripelennamine hydrochloride], the HCT116-GFP viability was 100%.

As for `CN1C(=O)CC(c2ccccc2)C1=O` (configuration not stated) [Phensuximide], the HCT116-GFP viability worked out at 86.4%. `Nc1ccn([C@@H]2O[C@H](CO)[C@@H](O)C2(F)F)c(=O)n1` [Gemcitabine]: the HCT116-GFP viability is 14.4%. As for `CC(=O)O[C@@]12CO[C@@H]1C[C@H](O)[C@@]1(C)C(=O)[C@H](O)C3=C(C)[C@@H](OC(=O)[C@H](O)[C@@H](NC(=O)OC(C)(C)C)c4ccccc4)C[C@@](O)([C@@H](OC(=O)c4ccccc4)[C@H]21)C3(C)C` [Docetaxel], the HCT116-GFP viability worked out at 22.8%. Consider `Clc1ccc(CSC(Cn2ccnc2)c2ccc(Cl)cc2Cl)cc1` (configuration not stated) [Sulconazole nitrate], for which the HCT116-GFP viability was 52.4%. Turning to `C[C@]12CC[C@@H]3c4ccc(O)cc4CC[C@H]3[C@@H]1CC[C@@H]2O` [Estradiol-17 beta], the HCT116-GFP viability is 97.6%. The same measure for `CCCN(CCC)S(=O)(=O)c1ccc(C(=O)O)cc1` [Probenecid]: 103%; for `CN(C)CCOC(c1ccccc1)c1ccccc1` [Diphenhydramine hydrochloride]: 93.1%; for `COc1ccc2[nH]c([S+]([O-])Cc3ncc(C)c(OC)c3C)nc2n1` (configuration not stated) [Tenatoprazole]: 84.9%. In the case of `CC(=O)[C@H]1CC[C@H]2[C@@H]3CCC4=CC(=O)CC[C@]4(C)[C@H]3CC[C@]12C` [Progesterone], the HCT116-GFP viability is 82%.

Consider `CN(C)CC/C=C1/c2ccccc2Sc2ccc(Cl)cc21` [Chlorprothixene hydrochloride], for which the HCT116-GFP viability came to 63%. As for `NC(Cc1cc(I)c(Oc2cc(I)c(O)c(I)c2)c(I)c1)C(=O)O` (configuration not stated) [Thyroxine (L)], the HCT116-GFP viability came to 59.5%. On to `CC(=O)Oc1ccccc1C(=O)O` [Acetylsalicylic acid], for which the HCT116-GFP viability is 86.9%.

For `N=C(N)NS(=O)(=O)c1ccc(N)cc1` [Sulfaguanidine], the HCT116-GFP viability came to 108%. In the case of `CC1=C(/C=C/C(C)=C/C=C/C(C)=C/C(=O)O)C(C)(C)CCC1` [Retinoic acid] it was 96.3%; in that of `NC(=O)c1cc[n+](CC2=C(C(=O)[O-])N3C(=O)[C@@H](NC(=O)[C@@H](c4ccccc4)S(=O)(=O)O)[C@H]3SC2)cc1` [Cefsulodin sodium salt], 101%; in that of `CCc1c(C)[nH]c2c1C(=O)C(CN1CCOCC1)CC2` (configuration not stated) [Molindone hydrochloride], 82.8%.

Consider `CCC1(c2ccccc2)NC(=O)N(C)C1=O` (configuration not stated) [Mephenytoin], for which the HCT116-GFP viability stood at 80.1%. In the case of `CC1(C)[C@H](C(=O)O)N2C(=O)C[C@H]2S1(=O)=O` [Sulbactam] it was 80.1%. In the case of `Cc1ncc(CO)c(CO)c1O` [Pyridoxine hydrochloride], the HCT116-GFP viability turned out to be 92.8%. In the case of `C#C[C@]1(OC(C)=O)CC[C@H]2[C@@H]3CCC4=CC(=NO)CC[C@@H]4[C@H]3CC[C@@]21CC` (mixture of isomers) [Norgestimate], the HCT116-GFP viability turned out to be 74.4%. The same measure for `Clc1ccc(CO/N=C(\Cn2ccnc2)c2ccc(Cl)cc2Cl)c(Cl)c1` [Oxiconazole Nitrate]: 75%; for `CC(=O)O[C@]1(C(C)=O)CC[C@H]2[C@@H]3C=C(Cl)C4=CC(=O)[C@@H]5C[C@@H]5[C@]4(C)[C@H]3CC[C@@]21C` [Cyproterone acetate]: 92.2%. The same measure for `N[C@@H]1CONC1=O` [D-cycloserine]: 107%; for `O=C(O)COCCN1CCN(C(c2ccccc2)c2ccc(Cl)cc2)CC1` (configuration not stated) [Cetirizine dihydrochloride]: 89.4%.

With `COc1cc2nc(N(C)CCCNC(=O)C3CCCO3)nc(N)c2cc1OC` (configuration not stated) [Alfuzosin hydrochloride], the HCT116-GFP viability amounted to 109%.

For the compound `Clc1ccc(Cn2c(CN3CCCC3)nc3ccccc32)cc1` [Clemizole hydrochloride], the HCT116-GFP viability stood at 89.1%. Consider `CC1(C)S[C@@H]2[C@H](NC(=O)[C@H](NC(=O)N3CCNC3=O)c3ccccc3)C(=O)N2[C@H]1C(=O)O` [Azlocillin sodium salt], for which the HCT116-GFP viability was found to be 86.4%. As to `CC(C)c1ccc2oc3nc(N)c(C(=O)O)cc3c(=O)c2c1` [Amlexanox], the HCT116-GFP viability is 80.4%.

As to `COC(=O)Nc1nc2cc(C(=O)c3ccccc3)ccc2[nH]1` [Mebendazole], the HCT116-GFP viability amounted to 10.7%. As for `Cc1cc2c(cc1S(N)(=O)=O)S(=O)(=O)CCC2` [Meticrane], the HCT116-GFP viability is 96.7%. Regarding `NCCNCCNCCNCCN` [Tetraethylenepentamine pentahydrochloride], the HCT116-GFP viability was determined as 85.5%. For the compound `Cc1onc(-c2c(Cl)cccc2Cl)c1C(=O)N[C@@H]1C(=O)N2[C@@H]1SC(C)(C)[C@@H]2C(=O)O` [Dicloxacillin sodium salt hydrate], the HCT116-GFP viability is 104%. Regarding `CN1C(C)(C)CCCC1(C)C` [Pempidine tartrate], the HCT116-GFP viability came to 101%. `C[N+](C)(C)CCCCCC[N+](C)(C)C` [Hexamethonium dibromide dihydrate]: the HCT116-GFP viability was 96.8%. `CC[N+](C)(C)Cc1ccccc1Br` [Bretylium tosylate]: the HCT116-GFP viability came to 81.5%. In the case of `CN(C)/N=N/c1[nH]cnc1C(N)=O` [Dacarbazine], the HCT116-GFP viability is 54.4%. As for `COc1ccc(C(Cl)=C(c2ccc(OC)cc2)c2ccc(OC)cc2)cc1` [Chlorotrianisene], the HCT116-GFP viability is 86.8%.
